For 91 molecules, Potency results are on record in PubChem BioAssay AID360 (National Center for Advancing Translational Sciences (NCATS), 2006).

In all, about 48,000 compounds went through this assay and about 550 (1.1%) were called active. Inconclusive results (about 4%) are left out. Cut-off read from the data, not from the text of the source: active = potency below about 15 µM; inconclusive = mostly about 16 µM to 33 µM; inactive = weaker than that. The list shows a part of the results.
Potency is the fitted concentration of half-maximal effect.

Chain of UniProt P04062 (P04062 whole entry, looked up): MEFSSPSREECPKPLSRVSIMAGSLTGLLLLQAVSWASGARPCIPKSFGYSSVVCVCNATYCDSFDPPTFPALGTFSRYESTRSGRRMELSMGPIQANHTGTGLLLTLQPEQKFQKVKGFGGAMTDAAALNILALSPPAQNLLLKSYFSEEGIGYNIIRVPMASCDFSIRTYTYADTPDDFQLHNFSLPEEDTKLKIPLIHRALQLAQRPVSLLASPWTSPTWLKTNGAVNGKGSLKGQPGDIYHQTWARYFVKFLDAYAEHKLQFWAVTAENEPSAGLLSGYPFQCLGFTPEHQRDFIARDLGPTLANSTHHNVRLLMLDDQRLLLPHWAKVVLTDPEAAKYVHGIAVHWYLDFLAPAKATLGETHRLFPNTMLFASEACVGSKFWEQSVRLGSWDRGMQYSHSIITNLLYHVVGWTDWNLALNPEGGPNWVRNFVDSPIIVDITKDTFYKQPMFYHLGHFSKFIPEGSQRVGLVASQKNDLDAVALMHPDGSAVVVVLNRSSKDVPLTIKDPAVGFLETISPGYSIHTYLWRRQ

This experiment deals with Lysosomal acid glucosylceramidase (Homo sapiens) (UniProt P04062). The experiment is described as follows: Glucocerebrosidase.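 Note: the screen sought inhibitors.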 Conditions: purified enzyme, resorufin glucoside fluorescence (screen aimed at inhibitors), 20 min. In short, it runs like this:
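Wild-type enzyme at 0.2 nM final in 50mM citric acid/KH2PO4, 10mM sodium taurocholate, 0.01% tween-20, pH 5.9, with resorufin beta-D-glucopyranoside at 30 uM final. Compounds titrated, 20 min at RT, red fluorescence read; AC50 from titration.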
For `CS(=O)(=O)N(CC(=O)NCc1ccc2c(c1)OCO2)c1ccccc1`, the Potency was inactive: > 76.9 µM.

In the case of `O=C1CN(C(=O)COC(=O)COc2ccc3c(c2)CCC3)c2ccccc2N1`, the Potency is inactive: > 76.9 µM.

As to `CCc1nc2ccccc2n(CCOCCn2c(=O)c(CC)nc3ccccc32)c1=O`, the Potency is inactive: > 76.9 µM.

As for `C=CCN1C(=O)CN=C1Nc1ccc(OC)cc1OC`, the Potency was inactive: > 76.9 µM.

Take `O=C(O)CNS(=O)(=O)c1ccc(Br)s1`: the Potency was inactive: > 76.9 µM.

Take `CCOC(=O)C1C(=O)NC(N2CCCCC2)=NC1C(C)C` (stereo unspecified): the Potency was inactive: > 76.9 µM.

Turning to `CC1CCCCN1C(=O)COc1ccc(NC(=O)c2ccco2)cc1` (stereo unspecified), the Potency is inactive: > 76.9 µM.

Turning to `Cc1cc(C)n(C/C=C/Cn2nc(C)cc2C)n1`, the Potency was inactive: > 76.9 µM.

Regarding `COc1ccccc1-c1nnc(NC(=O)OCC(C)C)s1`, the Potency is inactive: > 76.9 µM.

`CC1(C)CC(=O)C(C=NCCN2CCNC2=O)=C(O)C1`: the Potency was inactive: > 76.9 µM.

As for `COc1cc(CN(C(=O)c2ccco2)c2ccc(C)cc2)ccc1O`, the Potency is inactive: > 76.9 µM.

With `CCCOc1c(OC)cccc1C1CC(=O)Nc2cc3c(cc21)OCO3` (stereo unspecified), the Potency is inactive: > 76.9 µM.

As to `CC(C)Cn1c(SCC#N)nc2ccccc2c1=O`, the Potency was inactive: > 76.9 µM.

On to `COC(=O)c1ccccc1NC(=O)COC(=O)c1cccnc1`, for which the Potency is inactive: > 76.9 µM.

Turning to `COc1cccc(N2CC(O)=C(c3nc4ccccc4c(=O)[nH]3)C2=N)c1`, the Potency is inactive: > 76.9 µM.

On to `COc1nc(Nc2cccc(C(F)(F)F)c2)nc(OC)n1`, for which the Potency is inactive: > 76.9 µM.

For `CCN1CCN(Cc2nc3c(c(=O)n(C)c(=O)n3C)n2Cc2cccc3ccccc23)CC1`, the Potency was inactive: > 76.9 µM.

On to `CC1(c2ccc(Cl)cc2Cl)OCC(Cn2ccnc2)O1` (stereo unspecified), for which the Potency is inactive: > 76.9 µM.

Consider `CCSc1nnc(NC(=O)Cc2ccc(OC)c(S(=O)(=O)N3CCOCC3)c2)s1`, for which the Potency was inactive: > 76.9 µM.

Regarding `COc1ccccc1C(=O)N1CCN(C2CCN(Cc3ccccc3)CC2)CC1`, the Potency is inactive: > 76.9 µM.

For the molecule `C[C@H](NC(=O)OC(C)(C)C)C(=O)NCC1CCC(C(=O)O)CC1` (stereo partly specified), the Potency was inactive: > 76.9 µM.

Regarding `O=C(CN1C(=O)NC2(CCCc3ccccc32)C1=O)N1CCc2ccccc2C1` (stereo unspecified), the Potency was inactive: > 76.9 µM.

On to `Cc1cc(C)nc(N2CCN(c3ncnc4c3oc3ccccc34)CC2)n1`, for which the Potency is inactive: > 76.9 µM.

On to `O=C(Nc1ccccc1N1CCCCC1)c1ccccc1F`, for which the Potency is inactive: > 76.9 µM.

Take `Cc1ccc(NC(=O)COC(=O)C2=COCCO2)cc1`: the Potency was inactive: > 76.9 µM.

With `CC(=O)NC12CC3CC(C1)CC(C(=O)Nc1nccs1)(C3)C2`, the Potency was inactive: > 76.9 µM.

With `O=C(CN1C(=O)CCC1=O)Nc1ccc(Br)cc1`, the Potency is inactive: > 76.9 µM.

Turning to `CCC(=O)Nc1cnc(NC(=O)c2cccc(F)c2)cc1C`, the Potency was inactive: > 76.9 µM.

In the case of `CCOC(=O)CSc1ncnc2c1cnn2-c1ccccc1`, the Potency was inactive: > 76.9 µM.

In the case of `CCOC(=O)c1ccccc1NC(=O)COC(=O)C1=COCCO1`, the Potency is inactive: > 76.9 µM.

With `Cc1ncc(CC(=O)n2cc(C(=O)c3cc(Cl)ccc3O)cn2)s1`, the Potency was inactive: > 76.9 µM.

With `c1ccc(-c2nnc3sc(-c4cc5ccccc5o4)nn23)cc1`, the Potency is inactive: > 76.9 µM.

As for `CCOC(=O)N1CCC(n2c(SCC(=O)NCCC3=CCCCC3)nc3ccccc3c2=O)CC1`, the Potency is inactive: > 76.9 µM.

As to `CC(=O)c1cccc(NC(=O)N2CCCC2C(=O)NCCC(C)C)c1` (stereo unspecified), the Potency is inactive: > 76.9 µM.

As to `CCn1nc(C(=O)OCC(=O)c2ccc3c(c2)OCCO3)c2ccccc2c1=O`, the Potency was inactive: > 76.9 µM.

Take `CCOc1ccccc1CNC(=O)C1CCN(c2nc3ccccc3o2)CC1`: the Potency is inactive: > 76.9 µM.

On to `OCCN1CN=C(Nc2nc3ccccc3s2)NC1`, for which the Potency was inactive: > 76.9 µM.

As for `Cc1ccc(NC(=O)CCNS(=O)(=O)c2cccc3nonc23)cc1`, the Potency was inactive: > 76.9 µM.

On to `O=C(NCc1ccc2c(c1)OCO2)C1CCN(Cc2cnn(-c3ccccc3)c2-n2cccc2)CC1`, for which the Potency is inactive: > 76.9 µM.

For `CCc1nnc(SCC(=O)Nc2ccc(C(C)=O)cc2)nc1CC`, the Potency is inactive: > 76.9 µM.

In the case of `Cn1c(/C(C#N)=C(\O)COc2ccc3ccccc3c2)nc2ccccc21`, the Potency was inactive: > 76.9 µM.

For `CC(C)c1ccc(NC(=O)COC(=O)C2=COCCO2)cc1`, the Potency is inactive: > 76.9 µM.

Regarding `COc1cc(S(=O)(=O)N2CCOCC2)ccc1NC(=O)COC(=O)c1ccccn1`, the Potency was inactive: > 76.9 µM.

In the case of `Cc1ccc(S(=O)(=O)N2CCCCC2C(=O)NCc2ccco2)cc1` (stereo unspecified), the Potency was inactive: > 76.9 µM.

As to `CC(=O)NC(CCS(C)(=O)=O)C(=O)Nc1c(F)cccc1F` (stereo unspecified), the Potency was inactive: > 76.9 µM.

For the molecule `Cc1cc(C)n2cc(CSc3nnc(N)s3)nc2n1`, the Potency was inactive: > 76.9 µM.

As for `CC(=O)c1c(C)nc(-c2ccc(Cl)cc2Cl)n1O`, the Potency was inactive: > 76.9 µM.

Take `COC(=O)COc1ccc(S(=O)(=O)N2CCOCC2)cc1`: the Potency was inactive: > 76.9 µM.

For the molecule `CCC(c1nnnn1Cc1ccc2c(c1)OCO2)N1CCN(c2ccccc2)CC1` (stereo unspecified), the Potency is inactive: > 76.9 µM.

For `CC(=O)c1ccc(NC(=O)N[C@@H](CC(C)C)C(=O)O)cc1`, the Potency is inactive: > 76.9 µM.

As for `COc1ccc(C2C(C(C)=O)=C(O)C(=O)N2CCCn2ccnc2)cc1OC` (stereo unspecified), the Potency was inactive: > 76.9 µM.

Regarding `CCc1cc2cc3c(cc2nc1SCC(=O)N1CCN(C(=O)c2ccco2)CC1)OCO3`, the Potency was inactive: > 76.9 µM.

Take `Cc1ccc(C(C)C)c(OCC(=O)Nc2ccccc2N2CCN(C)CC2)c1`: the Potency entry is “inactive”.

Take `Cc1cc2c(=O)n(CC(=O)NCC(=O)N3CCN(Cc4ccccc4)CC3)cnc2s1`: the Potency was inactive: > 76.9 µM.

For `CC(=O)NC(Cc1ccccc1)C(=O)O` (stereo unspecified), the Potency was inactive: > 76.9 µM.

Consider `CCCn1c(SCC(=O)NCC2CCCO2)nc2c1c(=O)n(C)c(=O)n2C` (stereo unspecified), for which the Potency is inactive: > 76.9 µM.

As to `CC(C)C(=O)Nc1cccc(C(=O)NCc2ccc(S(N)(=O)=O)cc2)c1`, the Potency was inactive: > 76.9 µM.

Take `CCOC(=O)C1CCN(C2CC(=O)N(c3ccc(OCC)cc3)C2=O)CC1` (stereo unspecified): the Potency is inactive: > 76.9 µM.

On to `CCc1nc2ccccc2n1CC(=O)N1CCN(S(=O)(=O)c2cccc(C(F)(F)F)c2)CC1`, for which the Potency result is “inactive”.

For the molecule `COC(=O)c1nnn(CC(=O)Nc2cc(Cl)ccc2C)c1C(=O)OC`, the Potency is inactive: > 76.9 µM.

For `COc1ccc(N2CCN(CCNC(=O)c3c(C)cc(=O)oc3C)CC2)cc1`, the Potency was inactive: > 76.9 µM.

`CCOC(=O)COc1ccc(S(=O)(=O)N2CCN(c3ccccc3F)CC2)cc1`: the Potency was inactive: > 76.9 µM.

Take `CCOc1ccc(C(=O)N2CCCCCC2)cc1`: the Potency is inactive: > 76.9 µM.

For the molecule `O=C(CN1C(=O)CSc2ccccc21)Nc1ccccc1C(=O)N1CCOCC1`, the Potency was inactive: > 76.9 µM.

As to `COc1ccc(-c2nnn(CC(=O)N(Cc3cccs3)C(C)C(=O)NC3CCCC3)n2)cc1OC` (stereo unspecified), the Potency was inactive: > 76.9 µM.

For `NS(=O)(=O)c1ccc(CCNC(=O)NC2(C(F)(F)F)Oc3ccccc3O2)cc1`, the Potency was active: 13.6 µM.

Take `C(=C\c1ccccc1)/CN1CCN(c2ncnc3c2oc2ccccc23)CC1`: the Potency is inactive: > 76.9 µM.

`CC(C)(C)n1ncc2c(=O)n(CC(=O)N3CCCc4ccccc43)cnc21`: the Potency is inactive: > 76.9 µM.

On to `CCNc1nc(Oc2ccc(C(=O)OC)cc2)nc(N(C)C)n1`, for which the Potency was inactive: > 76.9 µM.

In the case of `O=C1c2cccnc2C(=O)N1CO`, the Potency was inactive: > 76.9 µM.

As to `COC(=O)CSc1nnnn1-c1ccccc1`, the Potency was inactive: > 76.9 µM.

Regarding `C=CCOC(=O)Nc1c(C(=O)OC)[nH]c2ccccc12`, the Potency was inactive: > 76.9 µM.

On to `Cc1cccn2c(=O)c3cc(C(=O)NCc4ccco4)c(=N)n(C(C)C)c3nc12`, for which the Potency was inactive: > 76.9 µM.

As to `CCOC(=O)C1CCN(C(=O)CN(Cc2ccc(Cl)cc2)S(C)(=O)=O)CC1`, the Potency was inactive: > 76.9 µM.

As for `CC1CCCN(CCCNC(=O)C2CC(=O)N(c3ccc(F)c(Cl)c3)C2)C1` (stereo unspecified), the Potency was inactive: > 76.9 µM.

For the molecule `CCCn1cnc2c(cnn2-c2ccc(F)cc2)c1=O`, the Potency was inactive: > 76.9 µM.

Regarding `O=C(O)c1cc(NCc2cccs2)ccc1N1CCOCC1`, the Potency was inactive: > 76.9 µM.

As to `COc1ccc(S(=O)(=O)Nc2ccccn2)c(C)c1C`, the Potency is inactive: > 76.9 µM.

Turning to `CCCNS(=O)(=O)c1ccc(CCC(=O)NCc2ccc3c(c2)OCO3)cc1`, the Potency is inactive: > 76.9 µM.

As for `Cn1c(SCC(=O)NCc2ccco2)nnc1-c1cccs1`, the Potency was inactive: > 76.9 µM.

On to `COc1ccc(OC)c(NC(=O)C2CCN(c3cc(-c4ccccc4)nc4ncnn34)CC2)c1`, for which the Potency is inactive: > 76.9 µM.

For `O=C(Nc1cnc2ccccc2c1)c1cccc(-n2cnnn2)c1`, the Potency was inactive: > 76.9 µM.

Regarding `CCCCC(=O)Nc1ccc(C(=O)Nc2ccc3c(c2)OCO3)cc1`, the Potency was inactive: > 76.9 µM.

Regarding `Clc1ccc(-n2cnnn2)cc1`, the Potency was inactive: > 76.9 µM.

On to `O=Nc1c2nc3ccccc3n(O)c-2c2ccccc12`, for which the Potency is inactive: > 76.9 µM.

Turning to `Fc1ccc(C(c2nnnn2Cc2cccs2)N2CCN(C3CCCCC3)CC2)cc1` (stereo unspecified), the Potency was inactive: > 76.9 µM.

With `COc1ccc2c(c1)c(=O)cc(C)n2CC(=O)NCc1ccco1`, the Potency was inactive: > 76.9 µM.

In the case of `CCCn1c(=C(C#N)C#N)s/c(=C2\C=Cc3ccccc3N2CC)c1=O`, the Potency is inactive: > 76.9 µM.

For the molecule `Cc1ccc(N(C(C)C(=O)Nc2ccc(S(=O)(=O)N3CCOCC3)cc2)S(C)(=O)=O)cc1C` (stereo unspecified), the Potency was inactive: > 76.9 µM.

In the case of `O=C(CN1CCN(c2ccc(F)cc2)CC1)N1CCC(Cc2ccccc2)CC1`, the Potency was inactive: > 76.9 µM.

Consider `Cc1ccn(S(=O)(=O)c2ccc(C(C)(C)C)cc2)n1`, for which the Potency was inactive: > 76.9 µM.
